Reference: PMC4336329 (PLoS ONE, 2015)
In all, about 310,000 compounds went through this assay and about 14,000 (4.5%) showed an effect of 50% or more. Effects have a minus sign here. The list shows a part of the results.
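Note: peak tail current of the secondary pulse compared with the same well before compound.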

What follows are compounds tested against human ether-à-go-go-related gene (hERG) potassium channel (human, UniProt Q12809) (assay: primary screen, population patch clamp on CHO cells stably expressing hERG).
Chain of human ether-à-go-go-related gene (hERG) potassium channel (Q12809 whole entry, looked up): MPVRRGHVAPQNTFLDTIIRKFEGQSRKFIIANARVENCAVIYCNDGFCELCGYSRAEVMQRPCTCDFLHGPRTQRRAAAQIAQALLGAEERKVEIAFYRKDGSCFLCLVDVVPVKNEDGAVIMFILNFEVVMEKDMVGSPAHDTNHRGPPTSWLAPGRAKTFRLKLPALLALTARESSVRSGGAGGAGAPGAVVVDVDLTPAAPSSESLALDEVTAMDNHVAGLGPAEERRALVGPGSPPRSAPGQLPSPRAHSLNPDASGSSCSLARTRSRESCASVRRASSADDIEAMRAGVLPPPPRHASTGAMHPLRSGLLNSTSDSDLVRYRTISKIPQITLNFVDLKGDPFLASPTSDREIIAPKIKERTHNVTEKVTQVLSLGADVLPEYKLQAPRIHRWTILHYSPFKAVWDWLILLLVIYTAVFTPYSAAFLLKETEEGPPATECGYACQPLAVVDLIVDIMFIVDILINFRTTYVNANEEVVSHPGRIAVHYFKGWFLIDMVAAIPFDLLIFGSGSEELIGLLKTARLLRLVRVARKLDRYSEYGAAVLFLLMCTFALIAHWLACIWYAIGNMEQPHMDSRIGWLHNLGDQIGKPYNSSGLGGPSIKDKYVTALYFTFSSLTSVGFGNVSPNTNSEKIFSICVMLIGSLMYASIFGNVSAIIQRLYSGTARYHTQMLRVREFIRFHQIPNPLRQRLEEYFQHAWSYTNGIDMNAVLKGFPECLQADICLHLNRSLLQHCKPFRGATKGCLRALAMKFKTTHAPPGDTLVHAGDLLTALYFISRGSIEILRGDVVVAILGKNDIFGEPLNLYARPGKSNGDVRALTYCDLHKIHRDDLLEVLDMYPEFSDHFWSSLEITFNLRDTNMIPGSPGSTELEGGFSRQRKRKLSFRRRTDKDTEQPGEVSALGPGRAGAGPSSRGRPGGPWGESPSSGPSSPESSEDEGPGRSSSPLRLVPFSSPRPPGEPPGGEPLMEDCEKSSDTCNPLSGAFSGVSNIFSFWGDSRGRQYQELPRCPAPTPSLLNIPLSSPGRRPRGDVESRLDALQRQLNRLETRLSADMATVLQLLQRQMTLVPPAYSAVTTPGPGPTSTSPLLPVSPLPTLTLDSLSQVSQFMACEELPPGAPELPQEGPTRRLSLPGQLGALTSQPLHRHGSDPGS
In the case of `O=C(C1CCC1)N1CCc2cc(S(=O)(=O)NC3CCCc4ccccc43)ccc21` (centres unmarked), the “hERG current change (%, negative = inhibition) at 10uM” value is reported as 6.89%. `Cc1ccc2cccc(S(=O)(=O)Nc3ccc4c(c3)OCO4)c2n1` was tested, and the “hERG current change (%, negative = inhibition) at 10uM” value was -10.5%. In the case of `O=C(NCc1ccco1)c1ccc(COc2cccc3ccccc23)cc1`, the “hERG current change (%, negative = inhibition) at 10uM” value is reported as -6.18%. `C=CCNC(=O)c1c(C(F)(F)F)nn(C)c1Cl` was tested, and the “hERG current change (%, negative = inhibition) at 10uM” value was -12.7%. In the case of `O=C(O)c1ccccc1C(=O)c1cccs1`, the “hERG current change (%, negative = inhibition) at 10uM” value is reported as 15%. For `O=C(CCC1CCN(C(=O)c2ccccc2Cl)CC1)NCc1ccc(F)cc1`, the “hERG current change (%, negative = inhibition) at 10uM” value was -18.9%. With `CCOC(=O)C1=C(C)NC(SC)=NC1c1ccccc1.I` (centres unmarked) the “hERG current change (%, negative = inhibition) at 10uM” value was -1.61%. In the case of `CCCCNC(=O)[C@H](CSCc1ccccc1)N1Cc2ccccc2C1=O`, the “hERG current change (%, negative = inhibition) at 10uM” value is reported as -68.5%. In the case of `Cc1ccc(NC(=O)c2csc3c2CCCC3)cc1`, the “hERG current change (%, negative = inhibition) at 10uM” value is reported as 31.1%. For `CCOc1ccccc1NC(=O)CCNS(=O)(=O)c1ccccc1`, the “hERG current change (%, negative = inhibition) at 10uM” value was 17.6%. In the case of `c1cc(-n2nnc3cnccc32)ccn1`, the “hERG current change (%, negative = inhibition) at 10uM” value is reported as 11.8%. `Cc1cccc(-c2nc3ccccc3c(=O)n2NC(=O)Cc2ccc(Cl)cc2)c1` was tested, and the “hERG current change (%, negative = inhibition) at 10uM” value was -5.01%. For `CCOC(=O)C1CC(C)=C(C)CC1C(=O)O` (centres unmarked), the “hERG current change (%, negative = inhibition) at 10uM” value was 9.68%. In the case of `CNC(=O)CO/N=C/c1ccc(N(C)C)cc1`, the “hERG current change (%, negative = inhibition) at 10uM” value is reported as 4.5%. For `Cc1ccc(-c2nc(CN3CCCCC3CCN3CCCC3=O)c(C)o2)o1` (centres unmarked), the “hERG current change (%, negative = inhibition) at 10uM” value was -51.5%. For `CCS(=O)(=O)N1CCN(S(=O)(=O)c2ccc3c(c2)OCCO3)CC1`, the “hERG current change (%, negative = inhibition) at 10uM” value was 17.5%. In the case of `C[n+]1c(/C=C/c2ccc(O)cc2)ccc2ccccc21.[I-]`, the “hERG current change (%, negative = inhibition) at 10uM” value is reported as -40.3%. In the case of `CCC(C)NC(=O)CSc1nnc(-c2cc(-c3cccs3)nc3ccccc23)o1` (centres unmarked), the “hERG current change (%, negative = inhibition) at 10uM” value is reported as -0.833%. In the case of `COc1cc(C2OCC3C(c4ccc(OC5OC(CO)C(O)C(O)C5O)c(OC)c4)OCC23)ccc1O` (centres unmarked), the “hERG current change (%, negative = inhibition) at 10uM” value is reported as -2.25%. For `COC(=O)c1ccc(-n2nnnc2SCC(=O)N2CCCCC2)cc1`, the “hERG current change (%, negative = inhibition) at 10uM” value was 8.52%. `Cc1ccc(C(=O)NNC(=O)c2ccccc2)cc1S(=O)(=O)N1CCCCC1` was tested, and the “hERG current change (%, negative = inhibition) at 10uM” value was -13.4%. `COc1cccc(CNC(=O)C2CCN(S(=O)(=O)c3cccs3)CC2)c1` was tested, and the “hERG current change (%, negative = inhibition) at 10uM” value was -37.7%. With `COc1ccc(CCNc2nc(-c3cccc(NC(C)=O)c3)cs2)cc1OC` the “hERG current change (%, negative = inhibition) at 10uM” value was -17.6%. `O=C(NCc1csc(-c2cccs2)n1)Nc1ccc(C(F)(F)F)cc1` was tested, and the “hERG current change (%, negative = inhibition) at 10uM” value was 6.25%. With `C=CCNC(=O)c1c(Cl)cnn1-c1ccc(C)cc1` the “hERG current change (%, negative = inhibition) at 10uM” value was -4.22%. `CSc1nc(N)c2c3c(sc2n1)COC(C(C)C)C3` (centres unmarked) was tested, and the “hERG current change (%, negative = inhibition) at 10uM” value was -12.1%.
